Data from the RNAGym collection of RNA variant scans (doi:10.1073/pnas.2313332121).
This sample is rich in variants without activity.

B1: TPR 5TU (parent)
chain: GGAUCUUCUCGAUCUAACAAAAAAGACAAAUCUGCCACAAAGCUUGAGAGCAUCUUCGGAUGCAGAGGCGGCAGCCUUCGGUGGCGCGAUAGCGCCAACGUUCUCAACUAUGACACGCAAAACGCGUGCUCCGUUGAAUGGAGUUUAUCAUG

Variants of: B1
Assay: polymerase ribozyme fitness, log enrichment relative to wild type (log ratio); higher = more active; in vitro selection for triplet polymerase activity
Summary of the method: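 Fitness compares each genotype's enrichment to that of the wild type on a logarithmic scale, averaging replicates with inverse-variance weights. The logarithm is base 2. Enrichment came from Illumina sequencing of input and output libraries after one triplicate round of in vitro selection, which included frozen incubation at −7 °C, of PCR-built, transcribed mutant libraries of each subunit of a heterodimeric triplet polymerase ribozyme. Only genotypes with ≥10 input reads and ≥1 read per output were kept.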

| Variant | polymerase ribozyme fitness (log ratio) |
| --- | --- |
| GGAUCUUAUCGAUCUAACAAAAAAGACAAAUCUGCCACAAAGCAUGAGAGAAUCUUCGGAUGCAGGGGCGGCAGCCUUCGGUGGUGCGAUAGCGCCAACGUUCUCAACUAUGACACGCAAAACGCGUGCGCCGUUGAAUGGAGUUUAUCAUG | ≤ -4.2 |
| GGAUCUUAUCGAUCUAACAAAAAAGACAAAUCUGCCACAAAGCUAGAGAGCAACUUCUAUUGCAGAGGCGGCAGCCUUCGGUGGCGCGAUAGUGCCAACGUUCUCAAUUAUGACAGGCAAAACGGGUGCUCCGUUGAAUGGAGUUUAUCAUG | ≤ -4.2 |
| GGAUCUUAUCGAUCUAACAAAAAAGACAAAUCUGCCACAAAGCUCGAGCGCAUCUUCGGAUGCAGAGGAGGCAGCCUUCCGUGGCGCAGUAGCGCCAACGUUCUCAACUAUGACACGCAAAACGCGUGCUCCGUUGAAUGGAGUUUAUCAUG | ≤ -4.2 |
| GGAUCUUAUCGAUCUAACAAAAAAGACAAAUCUGCCACAAAGCUUGAGAGCAUCAACGGAUGCAGAGGCGGCAGCCUUCGGUGGCGAGAUAGCGCCCACUUUCUCAACUAUGACACGCAAAACGCGUGCUCCGUUGAAUGGAGUUUAUCAUG | ≤ -4.2 |
| GGAUCUUAUCGAUCUAACAAAAAAGACAAAUCUGCCACAAAGCUUGAGAGCAUCUCCGGAUGCAGAGGCGGCGGCCUUCGGUGGCGUGAUAGCGCCAACGUUCUCAACUGUGACACGCAAAACGCGUGCUCCUUUGAGUGGAGUUUAUCAUG | ≤ -4.2 |
| GGAUCUUGUCGAUCUGACAAAAAAGACAAAUCUGCCACAAAGCUUGAGAGCAUCUUCGGAUGCAGAGGCGGCAGCCUUCGGUGGCGCGGUAUCGCCAACGUUCUCAACUAUGACACGCAAAACGCGGGCUCCGUUGAAUGGAGUUUAUCAUG | ≤ -4.2 |
| GGAUCUUGUCGAUCUAACGAAAAAGACAAAUCUGCCACAAAGCUUGACAGCAUCUACGGAUGCAGAGGCGGCAGCCUUAGGUGGCGCGAUAGCGCCAACGUUCUAGACUAUGACACGCAAAACGCGUGCUCCGUUGAAUCGAGUUUAUCAUG | ≤ -4.2 |
| GGAUCUUGUCGAUCUAACUACAAAGAUAAAUCUGCCACAAAGCUUGAGAGCAUCUUCGGAUGCAGAGGCGGCAGCCUUCGGUGGCGCAAUAGUGCCAACGUUCGCAACUAUGACACGCAAAACGCGUGCUCCGUUGAAUAGAGUUUAUCAUG | ≤ -4.2 |
| GGAUCUUGUCGAUCUAACAUAAAAGACAAAUUUGCCACAAAGCUUGAGAGCAUCUUCGGAUGCAGAGGCGGCAGCCUUAGGUGGCGCGAUAGCGCCAACGUUCUCAAAUAUGACAAGCAAAACGCGUGCUCCGUUGAAUGGAGUUUGUGAUG | ≤ -4.2 |
| GGAUCUUGUCGAUCUAACAACAAAGACAAAUCUGCCACAAAGCUUAAGAGCAUCUUCGGAUGCAGUGGCGGCAGCCUUCUGUGGCGCGAUAGCGCCAACGUUCUCAACUAUGACACGCAAAACGCGUGCUUCGUUGAAUGGAGUUUAUCAUG | ≤ -4.2 |
| GGAUCUUGUCGAUCUAACAAUGAAGACAAAUCUGCCACAAAGCUUGAGAGCAUCUUCGGAUGCAGAGGCGGCAGCCUUCGGUGGCUCGAUAGCGCCAACGCUCUCAACUAUGACACGUAAAACGCGUGCUCCGUUGAAUGGAGUUUAUCAUG | ≤ -4.2 |
| GGAUCUUGUCGAUCUAACAAAAACGACAAAUCUGCCACAAAGCUUGAGAGCAUCUUCGGAUGCAGAGGCGGCAGCCUUCGGUGCCACGAUAGCGCCAACGUUAUCAACUAUGACACGCAAAACGCGUUCUCCGUUGAAUGGAGUUUAUCAUG | ≤ -4.2 |
| GGAUCUUGUCGAUCUAACAAAAAGGACAAGUCUGCCACAAAGCUUGAGAGCAUCUUCGGAUGCAGAGGCAGCAGCCUUCGGUGGCGCGAUAGCGCCAACGUUCUCAACUAUGACACGCAAAACGCGUGCUCCGUUCAAUGGAGUUUAUCAUG | ≤ -4.2 |
| GGAUCUUGUCGAUCUAACAAAAAGGACAAAUCGGCCACAAAGCUUGAGAGCAUCUUCGAAUGCAGAGGCGACAACCUUCGGUGGCGCGAUAGCGCCAACGUUCUCAACUAUGACACGCAAAACGCGUGCUCCGUUGAAUGGAGCUUAUCAUG | ≤ -4.2 |
| GGAUCUUGUCGAUCUAACAAAAAAGACGAAUCUGCCACAAAGCUUGAGAGCAUCUUCGGAUGCAGAGGCGGCAGCCUUCGGUGGCGUGAUAGCGCCAACGUUCUCAACUAUGACACGCAAAACGCGUGCUCCGUUGAAUGGAGUUUAUCGUG | ≤ -4.2 |
| GGAUCUUGUCGAUCUAACAAAAAAGACAACUCUGCCACAAAGCUUGAGAGCAUCUUUGGAUGCAGAGGCGGCAGCCUUCGGUGGUGUGAUAGCGCCAACGUUCUCAACUAUGACACGCAAAACGCGGGGUCCGUUGAAUGGAGUUUAUCAUG | ≤ -4.2 |
| GGAUCUUGUCGAUCUAACAAAAAAGACAAGUCUGCCACAAAGCUUGAGAGUAUCUUCGGAUGCAGAGGCGGCAGCCUUCGGUGACGCAAUAGCGCCAACGUUGUCUACUAUGACAAGCAAAACGCGUGCUCCGCUGAAUGGAGUUUAUCAUG | ≤ -4.2 |
| GGAUCUUGUCGAUCUAACAAAAAAGACAAGUCUGCCACAAAGCUUGAAAGCAUCUUCGGAUGCAGAGGGGGCAGCCUUCGGUGGCACGAUAGCGCCAACGUUCUCAACUAUGACACGCAAAACGCGUGCUCCGUUGAAUGGAUUUUAUCAUG | -4.06 |
| GGAUCUUGUCGAUCUAACAAAAAAGACAAUUCUGCUACAAAGCUUGAGAGCAUCAUCGGAUGCAGAGGCGGCAGCCUUCGGUGGCGCGAUAGCGCCAACGUUCUCAACUAUGACACGCAAAACGCGUGCUCCGUUGAAUGGAGUUUAUCAUG | ≤ -4.2 |
